# Source: PubChem BioAssay AID686978 (National Center for Advancing Translational Sciences (NCATS), 2013)
# Out of some 420,000 compounds screened, about 64,000 (15%) were called active. This list was built around the results that the source calls inconclusive (neither active nor inactive); the mix of calls is not that of the screen. Calls follow the shape of the dose curve; as a rule, active = well fitted inhibition curve with a large enough effect; inconclusive = small, poorly fitted or top-dose-only effect; inactive = flat fitted curve, though single readings scatter. No potency is given beside an inconclusive call; the fits are too rough.
# Assay: qHTS for Inhibitors of human tyrosyl-DNA phosphodiesterase 1 (TDP1): qHTS in cells in absence of CPT; also: nearly all actives have a fitted effect of over 55% in size
# Conditions: DT40 Tdp1-/- hTDP1 cells, no CPT, ATP luminescence, 48 h; activity change, negative = growth inhibition: at 46.2 µM (top of the series) unless noted
# How it was run: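 Readout: luminescence from CellTiter-Glo after 30 min in the dark at RT. Cells: DT40 Tdp1-/- with stable hTDP1, 400/well. Exposure: compounds alone, ≥48 hr, 37 °C.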
# % is scaled to controls: 0 for no effect and ±100 for the full control effect; potency is read from the fitted curve at half-maximal effect; tags tell the direction and shape of the fitted curve.
Compound,"activity change, negative = growth inhibition",Potency
CC(C)CC(=O)NC(=S)Nc1cc(C(=O)O)ccc1Cl,inconclusive: -2.34% [inhibitor],
Cc1noc(/C=C/N(C)C)c1S(=O)(=O)N1CCN(c2ccccc2)CC1,,"inconclusive [inhibitor, single point]"
CC(C)C(=O)Nc1c(C(=O)c2ccc(F)cc2)oc2ccccc12,inconclusive: -34.3% [inhibitor],
Nc1nc(Cl)cc(N2CCC(c3cc(-c4ccc(Cl)cc4)n[nH]3)CC2)n1,,active: 2.82 µM
COC(=O)C[C@H]1C=C[C@@H](NC(=O)C2CC2)[C@@H](CO)O1,,inactive
O=C1NC(=O)C2(CCCC2c2ccccc2)N1 (centres undefined),,inactive
COc1ccc(Cc2nnc(SC)n2-c2ccc(F)cc2)cc1OC,,inactive
CN(C)CC/C=C1/c2cc(F)ccc2Sc2ccc(Cl)cc21,,active: 18.4 µM
CC(C)C(C)NC(=O)COc1ccc([N+](=O)[O-])cc1Cl (centres undefined),,"inconclusive [inhibitor, partial curve]"
CCCOC(=O)c1ccc(NC(=O)CC(C)(C)C)cc1,,"inconclusive [inhibitor, full curve, poor fit]"
COc1ccc(CC(=O)Oc2ccc(Br)cc2F)cc1S(=O)(=O)N1CCOCC1,,inactive
Cc1c(C(=O)c2ccccc2)c2ccccn2c1CCC#N,,inactive
COCCCNC(=O)c1[nH]c2cc(OC)ccc2c1Sc1ccc(C)cc1,,inactive
CC(=O)c1c(OC(=O)c2ccccc2)c2ccccc2n1C,,"inconclusive [inhibitor, single point]"
CCSc1nnc(NC(=O)c2cccc(S(=O)(=O)N(C)c3ccc(C)cc3)c2)s1,inconclusive: -33.1% [inhibitor],
FC(F)(F)c1cccc(-n2cc(-c3ccccc3)[nH]c2=S)c1,,"inconclusive [inhibitor, single point]"
C[C@H](NC(=O)c1nc[nH]c1C(=O)NC(c1ccccc1)c1ccccc1)C(=O)OC(C)(C)C,,"inconclusive [inhibitor, single point]"
CCn1cc(C(=O)NCCc2ccc(Cl)cc2)c(=O)c2cc(S(=O)(=O)N3CCc4ccccc4C3)ccc21,inconclusive: -34.6% [inhibitor],
CCOC(=O)N1CCC(NC(=O)c2cc(C(=O)Nc3ccc(S(=O)(=O)N4CCCCC4)cc3)ccc2CO)CC1,,inactive
CCOC(=O)C1CCN(C(=O)C(=O)Nc2ccc3nc4n(c(=O)c3c2)CCCCC4)CC1,,"inconclusive [inhibitor, single point]"
CCC(c1nnnn1C(C)(C)C)N1CCN(C/C=C/c2ccccc2)CC1 (centres undefined),,"inconclusive [inhibitor, single point]"
C/C(=N\N1CCN(Cc2ccccc2)CC1)c1ccco1,,inactive
c1ccc2sc(NN=C3CCCC3)nc2c1,,"inconclusive [inhibitor, single point]"
O=C(Nc1ccc(Cl)cc1)OCc1cncs1,,"inconclusive [inhibitor, partial curve]"
O=C(NC1CCCC1)C(=O)N(Cc1cccnc1)C(C(=O)NCC1CCCO1)c1ccco1 (centres undefined),,inactive

Compound,"activity change, negative = growth inhibition",Potency
COCCNC(=O)C(=O)NNC(=O)CCc1ccccc1,,inactive
CCCc1nc(N2CCN(S(=O)(=O)c3ccc(Cl)cc3)CC2)c2c(C)c(C)sc2n1,,"inconclusive [inhibitor, single point]"
COC(=O)c1ccccc1NC(=O)Nc1ccc(C(=O)N2CCCC2)cc1,,inactive
CC(C)(CNC(=O)COc1ccccc1Cc1ccccc1)N1CCOCC1,,"inconclusive [inhibitor, single point]"
C[C@@H]1CN([C@@H](C)CO)C(=O)c2cc(Br)cnc2O[C@@H]1CN(C)Cc1cncnc1,,inactive
Cc1cc(C)cc(NC(=O)CN2C(=O)COc3ccc(S(=O)(=O)N4CCCC4)cc32)c1,,"inconclusive [inhibitor, single point]"
O=C(NCc1ccc(F)cc1)C1CCCN(S(=O)(=O)c2ccc(-n3cnnn3)cc2)C1 (centres undefined),,"inconclusive [inhibitor, partial curve]"
O=S(=O)(CCN(CCS(=O)(=O)C(F)(F)F)CC1CCCO1)C(F)(F)F (centres undefined),,active: 2.31 µM
O=C1CCCC/C1=C/Nc1cccc(C(F)(F)F)c1,,inactive
C=CCNC(=O)C(C#N)c1nc2ccccc2nc1N1CCCCCC1 (centres undefined),,"inconclusive [inhibitor, single point]"
COc1ccc(C2CCc3cc4c(cc3C2=NOC(C)=O)OCO4)cc1OC (centres undefined),,active: 14.6 µM
OC(CNCc1ccc(Cl)c(Cl)c1)c1ccccc1 (centres undefined),,"inconclusive [inhibitor, partial curve]"
CNC(=O)NC(=O)CSc1nnc(-c2ccco2)n1-c1ccccc1,,inactive
CCc1cccc(C)c1NC(=O)Nc1c(Br)cnn1C,,inactive
Cc1cccc(NC(=O)c2cc3c(=O)n(Cc4ccco4)ccc3nc2C)c1,,"inconclusive [inhibitor, single point]"
COc1cccc(-c2csc(N3CCN(C(=S)Nc4cccc(C)c4)CC3)n2)c1,,"inconclusive [inhibitor, single point]"
CCCCN(C(=O)Oc1ccccc1)C1CCS(=O)(=O)C1 (centres undefined),,inactive
Cc1ccc(N(CC(=O)NCc2ccc3c(c2)OCO3)S(=O)(=O)c2c(C)noc2C)cc1,,active: 23.1 µM
Fc1ccc(-c2nc(-c3cccs3)c(-c3cccs3)[nH]2)cc1,,"inconclusive [inhibitor, partial curve]"
O=C1C2C3C=CC(C3=C3CCCCC3)C2C(=O)N1Cc1ccccc1 (centres undefined),,"inconclusive [inhibitor, partial curve]"
COc1ccc(NC(=O)c2ccccc2O)c(OC)c1,,"inconclusive [inhibitor, partial curve]"
CCCCCCCCCCC1=C(C)C(=O)C(OC)=C(OC)C1=O,,"inconclusive [inhibitor, single point]"
CCOC(=O)[C@]12CCCC=C1N(CCc1ccc(OC)c(OC)c1)C(=O)[C@H](CC(=O)N1CCCC1)C2,,active: 9.2 µM
CN(C(=O)NC1CCCCC1)[C@H]1C[C@H]2c3[nH]c4ccccc4c3CCN2C(=O)[C@H]1CO,,inactive
COC(=O)Cc1c(-c2[nH]c3ccccc3c2CC(=O)OC)[nH]c2ccccc12,,active: 14.6 µM

Compound,"activity change, negative = growth inhibition",Potency
CN(c1ncnc2c1c(-c1ccccc1)cn2-c1ccc(F)cc1)C1CCCCC1,,active: 23.1 µM
CCC(=O)N1CCc2cc(S(=O)(=O)CCC(=O)N3CCN(c4ccccc4Cl)CC3)ccc21,,"inconclusive [inhibitor, single point]"
Cc1cc2occ(CC(=O)N(C)CC(=O)Nc3ccc(F)cc3)c2cc1C,,"inconclusive [inhibitor, partial curve]"
N#CCSc1nc2c(c(=O)n1Cc1ccccc1)C1(CCCC1)Cc1ccccc1-2,,"inconclusive [inhibitor, single point]"
CC1CCCCN1C(=O)CSc1nnc(-c2ccco2)o1 (centres undefined),,inactive
COc1ccc(Cl)cc1S(=O)(=O)N1CCCC(C(=O)N2CCCC2)C1 (centres undefined),,inactive
O=C(O/N=C(/c1ccccc1)c1ccncc1)c1cccc(F)c1,,"inconclusive [inhibitor, single point]"
O=C(NCCOCCO)C(=O)Nc1c2c(nn1-c1ccc(F)cc1)CSC2,,inactive
CC1CCN(S(=O)(=O)c2cccc(C(=O)NC3CCCC3)c2)CC1,,"inconclusive [inhibitor, single point]"
COc1cccc(-c2cnc3c(NC(C)=O)cc(-c4cccc(C(=O)NCCO)c4)cn23)c1,,"inconclusive [inhibitor, partial curve, poor fit]"
O=C(NNc1nc2cc3c(cc2s1)OCO3)c1cccc(F)c1,,"inconclusive [inhibitor, single point]"
COCCN(Cc1ccccc1)C(=O)c1cc(S(=O)(=O)N2CCCCCC2)ccc1OC,,"inconclusive [inhibitor, single point]"
CCN1CCN(S(=O)(=O)c2ccc(C(C)(C)C)cc2)CC1,,inactive
Cc1nn2c(NCCCn3ccnc3)cc(C(C)C)nc2c1-c1ccccc1,,"inconclusive [inhibitor, single point]"
COc1ccc(OC)c(NC(=O)CCN2CCN(c3ccccc3F)CC2)c1,,active: 13 µM
Cc1ccc(C(=O)N2CCCC2)cc1S(=O)(=O)N1CCCCC1,inconclusive: -30.4% [inhibitor],
Cc1cc(SCC(=O)c2cccs2)n2nc(C)c(-c3ccc(Cl)cc3)c2n1,,"inconclusive [inhibitor, single point]"
CCn1cc(C(=O)Nc2sc(C)c(C)c2C(=O)OC)cn1,,inactive
CCOC(=O)c1nc2cc3n(c(CC(C)C)c-2c1C)CC(C)=C3C,,"inconclusive [inhibitor, single point]"
CC(C)c1ccc2nc(NC(=O)C3CC3)sc2c1,,"inconclusive [inhibitor, single point]"
COc1cccc(CNC(=O)c2c(OC)cc(=O)n3c2CCN(C(=O)c2ccc(C)cc2C)CC3)c1,,inactive
OC1CCC(Nc2ccn3nc(-c4cccc(Cl)c4)cc3n2)CC1 (centres undefined),,"inconclusive [inhibitor, single point]"
O=C(COc1ccc(Cl)cc1)NN=C1CCCCCCC1,,inactive
Cn1c(N)c(C(=O)COC(=O)/C=C/c2ccccc2Cl)c(=O)n(C)c1=O,,"inconclusive [inhibitor, single point]"
